{"source": "patent US9045526B2", "about": "(THE REGENTS OF THE UNIVERSITY OF MICHIGAN, priority 2011, dated 2015)", "key": {"[1]": {"target": "T1, mu-opioid receptor (MOR) (Rattus norvegicus, UniProt P33535)", "T1 construct": "expressed in transfected cells; host or cells: C6 rat glioma cells (C6-MOR), stably transfected", "T1 sequence (P33535 whole entry)": "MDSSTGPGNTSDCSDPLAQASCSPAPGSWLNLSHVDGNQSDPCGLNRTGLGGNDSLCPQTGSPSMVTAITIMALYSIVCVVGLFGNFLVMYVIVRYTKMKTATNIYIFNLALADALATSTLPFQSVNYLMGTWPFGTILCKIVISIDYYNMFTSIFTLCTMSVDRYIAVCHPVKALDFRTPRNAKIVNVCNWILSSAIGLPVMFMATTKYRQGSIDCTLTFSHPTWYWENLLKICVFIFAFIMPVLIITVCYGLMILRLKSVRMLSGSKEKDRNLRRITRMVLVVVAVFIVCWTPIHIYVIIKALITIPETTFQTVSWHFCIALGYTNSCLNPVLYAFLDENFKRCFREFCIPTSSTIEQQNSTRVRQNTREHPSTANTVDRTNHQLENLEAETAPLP", "assay_type": "binding"}, "[2]": {"target": "T2, kappa-opioid receptor (KOR) (Homo sapiens, UniProt P41145)", "T2 construct": "expressed in transfected cells", "T2 sequence (P41145 whole entry)": "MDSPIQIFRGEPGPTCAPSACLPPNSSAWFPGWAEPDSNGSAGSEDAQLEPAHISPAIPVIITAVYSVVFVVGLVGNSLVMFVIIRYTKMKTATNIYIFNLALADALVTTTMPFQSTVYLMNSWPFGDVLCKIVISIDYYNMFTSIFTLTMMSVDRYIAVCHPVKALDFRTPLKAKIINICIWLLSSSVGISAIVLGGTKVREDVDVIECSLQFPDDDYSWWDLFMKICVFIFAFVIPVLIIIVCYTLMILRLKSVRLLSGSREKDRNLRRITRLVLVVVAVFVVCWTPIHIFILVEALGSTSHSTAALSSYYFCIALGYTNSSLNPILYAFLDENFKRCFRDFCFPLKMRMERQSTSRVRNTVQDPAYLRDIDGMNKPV", "assay": "Radioligand binding, displacement of [3H]diprenorphine, CHO-KOR membranes"}}, "note": "Peptide text beside a SMILES is read from it."}
{"smiles": "Cc1cc(O)cc(C)c1C[C@H](N)C(=O)N1Cc2ccccc2C[C@H]1C(=O)NCC(=O)NCc1ccccc1", "note": "[Dmt-Tic-Gly-NH-Bzl, reference compound] (HELM PEPTIDE1{[Cc1cc(O)cc(C)c1C[C@H](N)C(=O)[*:2]].[Tic].G.[c1ccc(CN[*:1])cc1]}$$$$V2.0; N-terminus assumed)", "values": [{"measurement": "decrease in affinity to MOR relative to DOR", "setting": "[1]", "result": 130, "unit": "fold"}, {"measurement": "decrease in affinity to KOR relative to DOR", "setting": "[2]", "result": 640, "unit": "fold"}]}
